Consider 153 variants from a collection of fitness landscapes (doi:10.1016/j.celrep.2020.107928).

The labels stand for the following.
B1: Caulobacter ParB omega fusion; a variant is named by its letters at X, in order, B8GW30 (parent)
chain: MESVVVGEPGMSEGRRGLGRGLSALLGEVDAAPAQAPGEQLGGSREAPIEILQRNPDQPRRTFREEDLEDLSNSIREKGVLQPILVRPSPDTAGEYQIVAGERAWRAAQRAGLKTVPIMVRELDDLAVLEIGIIENVQRADLNVLEEALSYKVLMEKFERTQENIAQTIGKSXSHVANXMRLLXLPDEVQSYLVSGELTAXHARAIAAAADPVALAKQIIEGGLSVRETEALARKAPNLSAGKSKGGRPPRVKDTDTQALESDLSSVLGLDVSIDHRGSTGTLTITYATLEQLDDLCNRLTRGI

Over roughly 81,000 sequences, “one-hybrid fitness for binding parS DNA” has its median near -0.17; the highest 2% begin near 0.51. Some of the results follow.

Variants of B1 are the subject of this assay. Description: one-hybrid fitness for binding parS DNA (scaled: cognate 1, non-cognate 0); higher = stronger binding. To be noted: with parS DNA site. Put shortly:
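Fitness is the rescaled log change in variant-to-wild-type read ratio, measured by Illumina sequencing of plasmids before and after bacterial one-hybrid selection. The scale puts cognate at 1 and non-cognate at 0. Selection of Caulobacter ParB libraries, four specificity codons randomised, took place in E. coli USO with a HIS3 reporter, site 19 bp from the promoter, over 48 hours at 37°C on M9-minus-histidine with 0.1 mM IPTG and 5 mM 3-AT.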
In the case of LWAG, the “one-hybrid fitness for binding parS DNA” value is at most 0.2.
The figure for ASCS is at most 0.2; for STCM it is at most 0.2; for VPAM it is at most 0.2.
The figure for WISR is at most 0.2; for VTYT it is at most 0.2.
The figure for AMPP is at most 0.2; for VDSA it is at most 0.2.
Turning to HMPW, the “one-hybrid fitness for binding parS DNA” value was at most 0.2.
The figure for RRVF is at most 0.2.
TLGN: the “one-hybrid fitness for binding parS DNA” value is at most 0.2.
The figure for LVDY is at most 0.2; for QTCR it is at most 0.2; for GVGG it is at most 0.2.
The figure for QARI is at most 0.2; for LPDL it is at most 0.2; for PWLF it is at most 0.2.
The figure for VNVG is at most 0.2.
On to FQNG, for which the “one-hybrid fitness for binding parS DNA” value is at most 0.2.
In the case of DSTV, the “one-hybrid fitness for binding parS DNA” value is at most 0.2.
Regarding RWIV, the “one-hybrid fitness for binding parS DNA” value is at most 0.2.
The figure for DYIG is at most 0.2; for FDMG it is at most 0.2.
Take ENHG: the “one-hybrid fitness for binding parS DNA” value was at most 0.2.
The figure for RIVK is at most 0.2; for AHRV it is at most 0.2; for KIVD it is at most 0.2.
NHHN: the “one-hybrid fitness for binding parS DNA” value was at most 0.2.
The figure for FTFT is at most 0.2; for GPKT it is at most 0.2; for QCKP it is at most 0.2.
The figure for RIRK is at most 0.2; for ITIC it is at most 0.2.
The figure for PDVS is at most 0.2.
Turning to NVPL, the “one-hybrid fitness for binding parS DNA” value was at most 0.2.
For the variant ASLC, the “one-hybrid fitness for binding parS DNA” value was at most 0.2.
The figure for ISHR is at most 0.2; for QQML it is at most 0.2.
The figure for FQKC is at most 0.2.
The figure for QPHQ is at most 0.2; for MQHR it is at most 0.2.
Consider THCF, for which the “one-hybrid fitness for binding parS DNA” value is at most 0.2.
Consider STGS, for which the “one-hybrid fitness for binding parS DNA” value was at most 0.2.
The figure for FCMS is at most 0.2; for NCRG it is at most 0.2; for EAYA it is at most 0.2.
For the variant AQAR, the “one-hybrid fitness for binding parS DNA” value is at most 0.2.
The figure for FVNT is at most 0.2; for WPDS it is at most 0.2.
The figure for RHNC is 0.871; for TTEY it is at most 0.2; for TNTR it is at most 0.2.
The figure for ILEI is at most 0.2.
For the variant TKQN, the “one-hybrid fitness for binding parS DNA” value was at most 0.2.
The figure for HMDS is at most 0.2.
For LYIF, the “one-hybrid fitness for binding parS DNA” value was at most 0.2.
On to MKTS, for which the “one-hybrid fitness for binding parS DNA” value was at most 0.2.
The figure for HRAI is at most 0.2.
The figure for AVML is at most 0.2; for HNIY it is at most 0.2; for DVLG it is at most 0.2.
Turning to PKHN, the “one-hybrid fitness for binding parS DNA” value was at most 0.2.
The figure for KRSH is at most 0.2.
The figure for GDFR is at most 0.2; for PRLW it is at most 0.2.
The figure for HNPT is at most 0.2; for DCSV it is at most 0.2; for GAPG it is at most 0.2.
For MWTS, the “one-hybrid fitness for binding parS DNA” value was at most 0.2.
Take QHDA: the “one-hybrid fitness for binding parS DNA” value is at most 0.2.
On to SCKT, for which the “one-hybrid fitness for binding parS DNA” value is at most 0.2.
The figure for RFQG is 0.965.
The figure for PTHN is at most 0.2; for CDSS it is at most 0.2; for FQGS it is at most 0.2.
The figure for YGTR is at most 0.2.
On to RHHY, for which the “one-hybrid fitness for binding parS DNA” value was 0.4.
The figure for MRFI is at most 0.2.
With QRPK, the “one-hybrid fitness for binding parS DNA” value was at most 0.2.
RFLG: the “one-hybrid fitness for binding parS DNA” value came to 0.891.
The figure for IGAA is at most 0.2; for HPRF it is at most 0.2; for PTGN it is at most 0.2.
For the variant RRWQ, the “one-hybrid fitness for binding parS DNA” value is at most 0.2.
The figure for QAYW is at most 0.2; for KGPF it is at most 0.2.
The figure for DGRH is at most 0.2; for QCKL it is at most 0.2.
The figure for RNDN is 0.226; for QYVP it is at most 0.2.
For SNRW, the “one-hybrid fitness for binding parS DNA” value was at most 0.2.
Turning to EMVS, the “one-hybrid fitness for binding parS DNA” value is at most 0.2.
The figure for SQKS is at most 0.2; for DEPR it is at most 0.2.
Regarding RYCD, the “one-hybrid fitness for binding parS DNA” value is at most 0.2.
The figure for IVQR is at most 0.2; for QCHQ it is at most 0.2.
The figure for TCAN is at most 0.2; for FHNR it is at most 0.2.
The figure for SSRN is at most 0.2.
RFRI: the “one-hybrid fitness for binding parS DNA” value was at most 0.2.
The figure for YPSI is at most 0.2; for DLLF it is at most 0.2; for PVPV it is at most 0.2.
The figure for NSPK is at most 0.2.
The figure for DHNW is at most 0.2; for QSRV it is at most 0.2; for VLYF it is at most 0.2.
Turning to THVD, the “one-hybrid fitness for binding parS DNA” value was at most 0.2.
For the variant TVHL, the “one-hybrid fitness for binding parS DNA” value is at most 0.2.
The figure for GVRP is at most 0.2; for RHEY it is 0.377.
For the variant VFRY, the “one-hybrid fitness for binding parS DNA” value is at most 0.2.
The figure for EHHS is at most 0.2.
The figure for AHHG is at most 0.2.
With ALVY, the “one-hybrid fitness for binding parS DNA” value was at most 0.2.
The figure for NNDM is at most 0.2; for AARF it is at most 0.2.
The figure for KRVY is at most 0.2.
The figure for LRKR is at most 0.2.
Turning to LKKP, the “one-hybrid fitness for binding parS DNA” value is at most 0.2.
The figure for QEKW is at most 0.2; for AYSS it is at most 0.2.
The figure for YWVR is at most 0.2; for RKND it is at most 0.2; for YLKG it is at most 0.2.
The figure for GYPH is at most 0.2.
For the variant CMGR, the “one-hybrid fitness for binding parS DNA” value was at most 0.2.
As for CAHE, the “one-hybrid fitness for binding parS DNA” value is at most 0.2.
ISVT: the “one-hybrid fitness for binding parS DNA” value was at most 0.2.
The figure for SYAN is at most 0.2; for LDRT it is at most 0.2.
The figure for FMTQ is at most 0.2; for RSCT it is 0.809; for QLQA it is at most 0.2.
The figure for PTGL is at most 0.2.
Take HPTR: the “one-hybrid fitness for binding parS DNA” value was at most 0.2.
The figure for NGVS is at most 0.2; for QNRR it is at most 0.2; for LYTV it is at most 0.2.
The figure for YERV is at most 0.2; for QWWG it is at most 0.2.
The figure for AITN is at most 0.2; for CAAT it is at most 0.2; for TGMT it is at most 0.2.
With HRMR, the “one-hybrid fitness for binding parS DNA” value was at most 0.2.
The figure for EHNS is at most 0.2; for PQLA it is at most 0.2.
For QTTV, the “one-hybrid fitness for binding parS DNA” value was at most 0.2.
The figure for QKHS is at most 0.2; for AMVL it is at most 0.2.
The figure for RSFM is 0.292.
The figure for NMFG is at most 0.2.
